About 2,200 (0.71%) of roughly 310,000 compounds showed an effect of 50% or more. Effects have a minus sign here. This is one part of the list.
biological target: human ether-à-go-go-related gene (hERG) potassium channel (human, UniProt Q12809); experiment: primary screen, population patch clamp on CHO cells stably expressing hERG
Sequence (Q12809 whole entry, looked up): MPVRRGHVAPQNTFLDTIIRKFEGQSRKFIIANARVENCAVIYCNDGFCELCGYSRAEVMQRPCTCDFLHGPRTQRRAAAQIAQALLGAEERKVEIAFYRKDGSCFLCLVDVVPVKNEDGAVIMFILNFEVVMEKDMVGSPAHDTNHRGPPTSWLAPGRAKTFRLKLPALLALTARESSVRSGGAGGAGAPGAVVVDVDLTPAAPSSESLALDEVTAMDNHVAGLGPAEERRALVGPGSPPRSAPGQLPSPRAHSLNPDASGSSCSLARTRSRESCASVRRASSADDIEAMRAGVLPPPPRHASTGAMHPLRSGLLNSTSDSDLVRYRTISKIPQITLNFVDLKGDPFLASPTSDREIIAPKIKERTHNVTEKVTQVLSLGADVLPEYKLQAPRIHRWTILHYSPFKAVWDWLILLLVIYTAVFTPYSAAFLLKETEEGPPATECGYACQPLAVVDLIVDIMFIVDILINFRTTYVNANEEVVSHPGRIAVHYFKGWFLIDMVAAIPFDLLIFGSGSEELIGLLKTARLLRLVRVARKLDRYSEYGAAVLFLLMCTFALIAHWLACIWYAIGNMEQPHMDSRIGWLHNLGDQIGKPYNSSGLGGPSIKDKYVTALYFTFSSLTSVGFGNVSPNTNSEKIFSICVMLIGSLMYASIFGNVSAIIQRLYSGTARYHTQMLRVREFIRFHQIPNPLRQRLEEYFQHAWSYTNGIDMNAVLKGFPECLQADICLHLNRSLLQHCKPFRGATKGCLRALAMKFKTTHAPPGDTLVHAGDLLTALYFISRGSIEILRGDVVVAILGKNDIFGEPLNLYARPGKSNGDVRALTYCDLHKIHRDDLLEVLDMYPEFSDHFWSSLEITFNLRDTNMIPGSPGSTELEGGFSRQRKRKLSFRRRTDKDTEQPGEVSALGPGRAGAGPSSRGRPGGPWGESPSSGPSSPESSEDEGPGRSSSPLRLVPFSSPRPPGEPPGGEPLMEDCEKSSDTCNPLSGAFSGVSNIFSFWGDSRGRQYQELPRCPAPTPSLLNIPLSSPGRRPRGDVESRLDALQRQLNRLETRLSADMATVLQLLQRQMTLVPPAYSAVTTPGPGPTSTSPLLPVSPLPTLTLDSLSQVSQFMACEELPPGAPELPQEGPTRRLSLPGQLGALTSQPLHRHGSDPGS

| SMILES | hERG current change (%, negative = inhibition) at 1uM [%] |
| --- | --- |
| COc1ccc(CCNS(=O)(=O)c2ccc(OC)cc2)cc1 | -7.01 |
| CN(C)c1nc(N)ncc1-c1ccc(Oc2ccccc2)cc1 | 9.59 |
| CCCc1ccc(-c2csc(NC(=O)Cc3cccs3)n2)cc1 | 6.69 |
| CCc1ccc(-c2cnc3ccccc3n2)cc1NC(=O)CNC(=O)c1ccccc1 | 18.4 |
| CCc1cc(=O)oc2c(CNCc3ccccc3F)c(O)c(Cl)cc12.Cl | 3.41 |
| COc1ccc(OC)c(CNC(=O)CCSCc2ccc(F)cc2Cl)c1 | 9.26 |
| Nc1c2c(=O)oc(-c3ccccc3)cc2nn1-c1ccccc1 | 8.15 |
| N#C/C(=C\c1ccc(-c2ccccc2Cl)o1)C(=O)Nc1nc2ccccc2s1 | 17.6 |
| O=C(Cn1c(=O)oc2cccnc21)Nc1ccccc1Oc1ccc(Cl)cc1Cl | 13.7 |
| CCC(CC)C(=O)N1c2ccc(F)cc2CCC1C (centres unmarked) | 5.64 |
| O=C(Cc1cccs1)NC(c1ccccc1)c1ccccc1 | 4.34 |
| CC(=O)Nc1c(C(=O)N2CCN(c3ccccn3)CC2)cnn1-c1ccc(C)cc1 | 8.88 |
| Cc1cccc(N(C(=O)CCC(=O)Nc2cccnc2)C(C(=O)NC2CCCC2)c2ccncc2)c1 (centres unmarked) | 10.8 |
| CCCCn1c(N)c(N(CCOC)C(=O)Cn2c(=O)oc3ccccc32)c(=O)[nH]c1=O | 13.5 |
| Cc1cccc2nc(CSc3nc4ccc([N+](=O)[O-])cc4[nH]3)cn12 | 0.208 |
| Cc1ccc(-c2nc(-c3ccccc3)no2)c(Cl)c1 | 9.08 |
| Cc1ccc(S(=O)(=O)N2CCOCC2)cc1C(=O)OCC(=O)c1ccc[nH]1 | 10.9 |
| Cc1ccc(/C(N)=N/OC(=O)Oc2ccccc2)cc1 | 8.45 |
| Cc1cc(N2CCOCC2)nc2ccc(NC(=O)CCC(=O)N3CCC(C)CC3)cc12 | 5.16 |
| CCOC(=O)c1sc(NC(=O)c2cc3n(n2)C(C(F)(F)F)CC(c2ccccc2)N3)c(C(=O)OCC)c1C (centres unmarked) | 15.8 |
| COc1cccc(C(=O)Nc2cc3c(cc2C(C)=O)OCCO3)c1 | -4.99 |
| CCN(c1ccccc1)S(=O)(=O)c1ccc(Oc2ccc(-n3ccnc3)cc2)nc1 | -15.9 |

| SMILES | hERG current change (%, negative = inhibition) at 1uM [%] |
| --- | --- |
| Cc1ccc(S(=O)(=O)N2C(=O)CCC2C(=O)NCc2ccco2)cc1 (centres unmarked) | 12.8 |
| CCCC(O)(c1ccc(Cl)cc1)C(CN1CCOCC1)c1ccc(Cl)cc1.Cl (centres unmarked) | 6.52 |
| c1coc(CNc2nc3ccccc3n2CCN2CCOCC2)c1 | -18.2 |
| COCCNC(=O)c1cccc(OC2CCN(Cc3ccc(C(C)C)cc3)CC2)c1 | -11.3 |
| COc1ccc(CNc2cc(C)ccc2C)c(OC)c1OC | -2.17 |
| CN(C)Cc1c(C(=O)N/N=C/c2ccc(OCc3ccc(F)cc3)cc2)nnn1-c1nonc1N | 11.5 |
| CCOC(=O)[C@H]1[C@H]2COc3ccc(Br)cc3[C@@H]2N2C(=O)c3ccc(C)cc3NC(=O)[C@@]12C | 12.3 |
| O=S(=O)(Nc1ccccn1)c1cnc(Cl)c(Br)c1 | 8.08 |
| COc1ccc(N2C(=O)N3[C@H](c4cccc(C)c4)[C@@H]4C(=O)N(Cc5ccccc5)C(=O)[C@@H]4[C@]3(Cc3ccccc3)C2=O)cc1 | 10.1 |
| CCOC(=O)C1=C(N)OC2=C(C(=O)CC(C)(C)C2)C1c1ccccc1OCC#N (centres unmarked) | 11 |
| CCn1c(SCC(=O)N/N=C/c2ccc(O)c(OC)c2)nc2ccccc21 | 9.28 |
| COC(=O)c1cc(C)sc1NC(=O)CCCC(=O)O | 23.2 |
| N#Cc1c(NC(=O)CSc2ncccn2)oc(-c2ccccc2)c1-c1ccccc1 | 23.3 |
| Cc1cccc(C2Nc3ccccc3C(=O)N2c2ccccc2)n1 (centres unmarked) | 7.56 |
| NC(=O)CN1CCN(CCN2C(=O)c3cccc4cccc(c34)C2=O)CC1 | 9.48 |
| COC(=O)c1scc(C)c1N1C(=O)c2ccccc2C1=O | 12.4 |
| COCC(=O)Nc1cc(C)cn(Cc2c(F)cccc2Cl)c1=O | 13.8 |
| CCOc1cc(C(=O)NCCc2ccc(S(N)(=O)=O)cc2)cc(OCC)c1OCC | 3.65 |
| CCc1ccc(C2CC(c3ccc(Cl)cc3)n3nc(N)nc3N2)cc1 (centres unmarked) | 5.32 |
| COC(=O)c1cc2ccsc2n1Cc1nc(-c2cccc(Cl)c2)oc1C | 7.84 |
| C=CCn1c(C)cc(C(=O)COC(=O)[C@@H](NC(=O)c2ccccc2Cl)C(C)C)c1C | 4.14 |
| CCCc1ccc2oc(C(=O)N3CCC[C@H]3CO)c(C)c2c1 | 3.59 |

| SMILES | hERG current change (%, negative = inhibition) at 1uM [%] |
| --- | --- |
| Cc1ccccc1S(=O)(=O)N1[C@@H](c2ccc(F)cc2)C(C(=O)O)=CC[C@H]1c1ccc(Cl)cc1 | 8.27 |
| CCOC(=O)C1(Cc2cccc(F)c2)CCN(C2CCOCC2)CC1 | -40.1 |
| COc1ccc(/C=C/C2=NN(C)C(=O)CC2)cc1 | 16.1 |
| N#Cc1cccc(S(=O)(=O)NCC(=O)OCC(=O)NCc2ccccc2)c1 | 9.66 |
| CC1CCc2sc(C(=O)OC(C)C(=O)Nc3ncc(Cl)cc3Cl)cc2C1 (centres unmarked) | 11.1 |
| CCC1CN(C(=O)NCc2ccc(F)cc2)c2ccccc2O1 (centres unmarked) | 7.74 |
| CC1CCCC(C)N1C(=O)CSc1nnnn1-c1cccc2c1CCCC2 (centres unmarked) | -7.29 |
| O=C(CBr)c1ccc([N+](=O)[O-])c(CS(=O)(=O)c2ccc(Cl)cc2)c1 | 16.1 |
| CN(C)/C=N/S(=O)(=O)c1cccn1-c1ncc(C(F)(F)F)cc1Cl | 10.5 |
| CC/C(=N\NS(=O)(=O)c1ccc(C)cc1)c1ccco1 | 11.6 |
| O=c1[nH]c(CN2CCN(c3ccccc3O)CC2)nc2scc(-c3ccccc3Cl)c12 | 13 |
| Cc1ccc(SCC(=O)OCC(=O)NC(C)c2ccc(F)cc2)cc1 (centres unmarked) | 8.33 |
| O=C(NC1CCCC1)C(c1ccc(Cl)cc1)N1CCN(C2CCCCC2)CC1 (centres unmarked) | -27.2 |
| OC(c1nc2ccccc2[nH]1)C(O)c1nc2ccccc2[nH]1 (centres unmarked) | 14.3 |
| Cc1ccc(-n2nc3c(=O)n(CC(=O)NCc4ccccc4)nc(C)c3c2C)cc1 | 12.6 |
| CN1C(=O)NC(NS(=O)(=O)c2ccc(N)cc2)(C(F)(F)F)C1=O (centres unmarked) | 8.38 |
| CC(=O)N1CCC2(CC1)CC(=O)c1cc(OCC(=O)N3CCC4(CC3)OCCO4)ccc1O2 | 5.56 |
| COc1ccc(C2/C(=C(/O)c3ccccc3)C(=O)C(=O)N2c2ccccn2)cc1OC (centres unmarked) | 12.8 |
| O=C(c1cn(Cc2ccccc2F)c2ncccc12)C(F)(F)F | 12.7 |
| Cc1ccc(C)c(S(=O)(=O)Nc2ccc3oc(C)c(C(=O)O)c3c2)c1 | 12.8 |
| O=C(NCCc1cn2ccsc2n1)C1CCCCC1 | 1.07 |
| CCCSC1=NN2CCCC(=O)N=C2S1 | 8.55 |

| SMILES | hERG current change (%, negative = inhibition) at 1uM [%] |
| --- | --- |
| CN1CCN(C(=O)C2CCN(S(=O)(=O)c3ccccc3[N+](=O)[O-])CC2)CC1 | 11.2 |
| Cc1ccccc1Oc1nc2ccccn2c(=O)c1/C=C(\C#N)C(=O)Nc1c(C)n(C)n(-c2ccccc2)c1=O | 5.41 |
| Cc1ccc(NC(=O)CN(C)C(=O)c2cccnc2Nc2cccc(C(F)(F)F)c2)cc1 | 8.3 |
| O=C(O)C1Nc2c(Cl)cc(Cl)cc2C2C=CCC12 (centres unmarked) | 17.5 |
| CCCCCCc1cc2cc(C(=O)Nc3ccccc3)c(=O)oc2cc1O | 9.04 |
| COc1ccc(/C=N/NC(=O)Nc2cccc3nsnc23)cc1 | 6.97 |
| O=C(O)CCn1c(=O)[nH]c(=O)n(CCC(=O)O)c1=O | 15.3 |
| CCc1cc2cc3c(cc2nc1SCC(=O)Nc1c[nH]c(=O)[nH]c1=O)OCO3 | 2.67 |
| C/C(=C/c1ccccc1)C(=O)N1CCC(C)CC1 | 10.5 |
| COc1ccc(/C=N/N=C2/NC(=O)C(c3ccccc3)S2)c(OC)c1 (centres unmarked) | 18.7 |
| COc1cccc(CNC(=O)CC2C(=O)NCCN2Cc2ccoc2)c1OC (centres unmarked) | 8.51 |
| COc1ccc(CN2CCN(Cc3ccccc3F)CC2)c(OC)c1.O=C(O)C(=O)O | -36 |
| COc1cccc(N2CCN(C(=O)c3ccc(CS(=O)Cc4ccc(Cl)cc4)o3)CC2)c1 (centres unmarked) | -10.9 |
| COc1ccc(C(=O)Nc2nnc(Cc3ccc(OC)c(OC)c3)s2)cc1 | 14 |
| COc1cccc(-c2nc(NCC3CCCO3)c3ccccc3n2)c1O (centres unmarked) | -3.62 |
| CN1C(=S)SC(C)(C)C1NO (centres unmarked) | 2.78 |
| Cc1ccccc1Oc1nc2c(c(=O)n(C)c(=O)n2C)n1C | 7.72 |
| CC(C)CN1CCN(CCCc2ccccc2)C(CCO)C1 (centres unmarked) | 5.95 |
| CCN1CCN(C(=S)NCCc2ccccc2)CC1.O=C(O)C(=O)O | 2.76 |
| O=C(c1cc2ccccc2o1)N1CC=C(c2ccccc2)CC1 | 12.8 |

— publication PMC4336329 (PLoS ONE, 2015)
